Experimental data taken from US10071110B2, “Phosphonate compounds” (priority 1999, dated 2018).

Tested on: Human cytomegalovirus (HCMV)
Experiment: HCMV antiviral assay, HCMV DNA quantified by DNA hybridization in MRC-5 cells
Type: cell-based
Conditions: Table 1 data

SMILES: CCCCCCCCCCCCCCCCOCCCOP1(=O)COC(Cn2ccc(N)nc2=O)CO1 (stereo not shown) [HDP-cCDV, 1-O-hexadecylpropanediol-3-cyclic CDV]
- times more active than CDV or cyclic CDV: > 900 times
